{
  "source": "patent EP0207453B1",
  "about": "(priority 1985, dated 1987)",
  "note": "Marks after values point to notes of the source that are not given here.",
  "data": [
    {"test_system": "HRV-2", "test": "not given", "conditions": "not given", "values": [
      {"smiles": "Cc1cc(CCCCCOc2c(Cl)cc(-c3nnnn3C)cc2Cl)on1", "note": "[Example 23 (2nd compd.), 5-{5-[2,6-dichloro-4-(1-methyl-1H-tetrazol-5-yl)phenoxy]pentyl}-3-methylisoxazole]", "MIC₈₀ (N) (Rhinovirus)": "0.4 (1) ^(a) micrograms per milliliter"},
      {"smiles": "Cc1cc(CCCCCOc2c(C)cc(-c3cccn3C)cc2C)on1", "note": "[13(b), 5-{5-[2,6-Dimethyl-4-(1-methyl-1H-pyrrol-2-yl)phenoxy]pentyl}-3-methylisoxazole]", "MIC₈₀ (N) (Rhinovirus)": ".07 (1)^(a) micrograms per milliliter"}
    ]},
    {"test_system": "human rhinovirus (HRV) serotypes, namely HRV-2, -1A, -1B, -6, -14, -21, -22, -15, -25, -30, -50, -67, -89, -86 and -41", "test": "standard plaque reduction assay, panel of fifteen human rhinovirus serotypes", "type": "cell-based", "conditions": "HeLa (Ohio) cells, 15 serotypes unless number N in parentheses after the figure, unit printed in b78 only", "values": [
      {"smiles": "Cc1cc(CCCCCOc2c(Cl)cc(-c3cccn3C)cc2Cl)on1", "note": "[Example 14, 5-{5-[2,6-Dichloro-4-(1-methyl-1H-pyrrol-2-yl)phenoxy]-pentyl}-3-methylisoxazole]", "MIC₈₀ (N) (Rhinovirus)": "1.6 micrograms per milliliter"},
      {"smiles": "Cc1cc(CCCCCOc2ccc(-c3nc4ccccc4s3)cc2)on1", "note": "[Example 4, 2-{4-[[5-(3-Methyl-5-isoxazolyl)pentyl]oxy]phenyl}-benzothiazole]", "MIC₈₀ (N) (Rhinovirus)": "2.675 (4) micrograms per milliliter"},
      {"smiles": "Cc1cc(CCCCCOc2ccc(-c3cccs3)cc2)on1", "note": "[Example 2, 3-Methyl-5-{5-(4-(2-thienyl)phenoxy]pentyl}-isoxazole]", "MIC₈₀ (N) (Rhinovirus)": "1.33 micrograms per milliliter"},
      {"smiles": "Cc1cc(CCCCCOc2ccc(-c3nc(C)c(C)s3)cc2)on1", "note": "[Example 3, 3-Methyl-5-{5-[4-(4,5-dimethyl-2-thiazolyl)phenoxy]-pentyl}isoxazole]", "MIC₈₀ (N) (Rhinovirus)": "0.57 micrograms per milliliter"},
      {"smiles": "Cc1cc(CCCCCOc2c(Cl)cc(-c3ccncc3)cc2Cl)on1", "note": "[Example 19]", "MIC₈₀ (N) (Rhinovirus)": "25.33 (6) micrograms per milliliter"},
      {"smiles": "Cc1cc(CCCCCOc2c(Cl)cc(-c3ccsc3)cc2Cl)on1", "note": "[Example 12, 5-{5-[2,6-Dichloro-4-(3-thienyl)phenoxy]pentyl}-3-methylisoxazole]", "MIC₈₀ (N) (Rhinovirus)": "1.14 micrograms per milliliter"},
      {"smiles": "Cc1cc(CCCCCOc2c(Cl)cc(-c3cccs3)cc2Cl)on1", "note": "[Example 1(c), 5-{5-[2,6-Dichloro-4-(2-thienyl)phenoxy]pentyl}-3-methylisoxazole]", "MIC₈₀ (N) (Rhinovirus)": "0.44 micrograms per milliliter"},
      {"smiles": "Cc1cc(CCCCCOc2ccc(-c3nccs3)cc2)on1", "note": "[Example 20, 3-Methyl-5-{5-[4-(2-thiazolyl)phenoxy]pentyl}-isoxazole]", "MIC₈₀ (N) (Rhinovirus)": "1.2 micrograms per milliliter"},
      {"smiles": "Cc1cc(CCCCCOc2ccc(-c3nc4ccccc4o3)cc2)on1", "note": "[Example 6, 5-{5-[4-(2-Benzoxazolyl)phenoxy]pentyl}-3-methylisoxazole]", "MIC₈₀ (N) (Rhinovirus)": "0.94 micrograms per milliliter"},
      {"smiles": "Cc1cc(CCCCCOc2c(Cl)cc(-c3ccc(C)s3)cc2Cl)on1", "note": "[10(b), 5-{5-[2,6-Dichloro-4-(5-methyl-2-thienyl)phenoxy]pentyl}-3-methylisoxazole]", "MIC₈₀ (N) (Rhinovirus)": "0.7 micrograms per milliliter"},
      {"smiles": "Cc1cc(CCCCCOc2c(C)cc(-c3ccsc3)cc2C)on1", "note": "[11(b), 5-{5-[2,6-Dimethyl-4-(3-thienyl)phenoxy]pentyl}-3-methylisoxazole]", "MIC₈₀ (N) (Rhinovirus)": "0.605 (14) micrograms per milliliter"},
      {"smiles": "Cc1cc(CCCCCOc2c(C)cc(-c3ccc(C)s3)cc2C)on1", "note": "[9(b), 5-{5-[2,6-Dimethyl-4-(5-methyl-2-thienyl)phenoxy]pentyl}-3-methylisoxazole]", "MIC₈₀ (N) (Rhinovirus)": "25.65 (6) micrograms per milliliter"},
      {"smiles": "Cc1cc(CCCCCOc2c(C)cc(-c3ccccn3)cc2C)on1", "note": "[15(b), 5-{5-[2,6-Dimethyl-4-(2-pyridinyl)phenoxyl]pentyl}-3-methylisoxazole]", "MIC₈₀ (N) (Rhinovirus)": "1.86 (5) micrograms per milliliter"},
      {"smiles": "Cc1cc(CCCCCOc2c(Cl)cc(-c3nnn(C)n3)cc2Cl)on1", "note": "[23 (1st compd.), 5-{5-[2,6-dichloro-4-(2-methyl-2H-tetrazol-5-yl)phenoxy]pentyl}-3-methylisoxazole]", "MIC₈₀ (N) (Rhinovirus)": "0.225 (4) micrograms per milliliter"},
      {"smiles": "Cc1cc(CCCCCOc2c(C)cc(-c3cccs3)cc2C)on1", "note": "[7(b), 5-{5-[2,6-Dimethyl-4-(2-thienyl)phenoxy]pentyl}-3-methylisoxazole]", "MIC₈₀ (N) (Rhinovirus)": "0.94 micrograms per milliliter"},
      {"smiles": "Cc1cc(CCCCCOc2c(Cl)cc(-c3nc(C)c(C)s3)cc2Cl)on1", "note": "[21 c]", "MIC₈₀ (N) (Rhinovirus)": "0.91 micrograms per milliliter"},
      {"smiles": "Cc1cc(CCCCCOc2c(Cl)cc(-c3ccccn3)cc2Cl)on1", "note": "[Example 16, 5-{5-[2,6-Dichloro-4-(2-pyridinyl)phenoxy]pentyl}-3-methylisoxazole]", "MIC₈₀ (N) (Rhinovirus)": "0.56 (13) micrograms per milliliter"}
    ]}
  ]
}
